Data taken from paper PMC4336329 (PLoS ONE, 2015).
Hit rate of the full screen: of about 310,000 compounds, about 2,200 (0.71%) showed an effect of 50% or more. The effect is printed as a negative number. This is one part of the list.

Molecular target: human ether-à-go-go-related gene (hERG) potassium channel (human, UniProt Q12809)
Test: primary screen, population patch clamp on CHO cells stably expressing hERG

Sequence of human ether-à-go-go-related gene (hERG) potassium channel (Q12809 whole entry, looked up): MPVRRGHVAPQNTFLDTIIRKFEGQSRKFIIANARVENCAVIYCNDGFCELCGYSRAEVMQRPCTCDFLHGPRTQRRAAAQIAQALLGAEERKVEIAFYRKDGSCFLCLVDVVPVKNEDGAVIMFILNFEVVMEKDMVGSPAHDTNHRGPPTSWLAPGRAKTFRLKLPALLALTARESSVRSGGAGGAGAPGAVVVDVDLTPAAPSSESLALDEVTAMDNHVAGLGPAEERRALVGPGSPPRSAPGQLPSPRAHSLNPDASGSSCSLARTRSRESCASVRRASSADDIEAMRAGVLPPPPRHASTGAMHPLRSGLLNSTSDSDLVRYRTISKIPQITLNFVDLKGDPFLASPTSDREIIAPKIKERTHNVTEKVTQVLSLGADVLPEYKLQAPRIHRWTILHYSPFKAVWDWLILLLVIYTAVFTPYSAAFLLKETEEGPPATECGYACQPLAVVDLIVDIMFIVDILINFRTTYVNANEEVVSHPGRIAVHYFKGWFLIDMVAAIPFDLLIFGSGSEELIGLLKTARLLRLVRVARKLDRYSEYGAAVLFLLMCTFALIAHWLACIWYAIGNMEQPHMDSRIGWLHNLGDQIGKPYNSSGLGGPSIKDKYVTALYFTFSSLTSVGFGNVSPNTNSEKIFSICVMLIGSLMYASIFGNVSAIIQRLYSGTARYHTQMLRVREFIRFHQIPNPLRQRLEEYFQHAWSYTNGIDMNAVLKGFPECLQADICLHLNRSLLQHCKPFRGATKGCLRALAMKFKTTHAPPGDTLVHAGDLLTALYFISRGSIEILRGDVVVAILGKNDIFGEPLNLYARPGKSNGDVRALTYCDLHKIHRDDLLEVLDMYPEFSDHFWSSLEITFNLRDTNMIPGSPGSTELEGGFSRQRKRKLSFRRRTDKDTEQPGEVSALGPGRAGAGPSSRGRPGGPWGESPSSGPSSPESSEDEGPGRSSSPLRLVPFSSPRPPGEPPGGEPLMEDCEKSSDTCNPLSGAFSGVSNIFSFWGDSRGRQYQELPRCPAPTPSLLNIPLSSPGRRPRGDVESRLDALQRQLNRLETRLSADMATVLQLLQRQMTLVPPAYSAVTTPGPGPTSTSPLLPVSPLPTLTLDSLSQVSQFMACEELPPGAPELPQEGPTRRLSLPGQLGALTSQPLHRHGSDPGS

Q: Which “hERG current change (%, negative = inhibition) at 1uM” value does the source give for O=S(=O)(Nc1ccccn1)c1cnc(Cl)c(Br)c1 here?
A: 8.08%

Q: For COc1ccc(N2C(=O)N3[C@H](c4cccc(C)c4)[C@@H]4C(=O)N(Cc5ccccc5)C(=O)[C@@H]4[C@]3(Cc3ccccc3)C2=O)cc1, which “hERG current change (%, negative = inhibition) at 1uM” value is on record?
A: 10.1%

Q: CCOC(=O)C1=C(N)OC2=C(C(=O)CC(C)(C)C2)C1c1ccccc1OCC#N (stereo not shown) was tested. Which “hERG current change (%, negative = inhibition) at 1uM” value did it give?
A: 11%

Q: CCn1c(SCC(=O)N/N=C/c2ccc(O)c(OC)c2)nc2ccccc21 was tested. Which “hERG current change (%, negative = inhibition) at 1uM” value did it give?
A: 9.28%

Q: How did the “hERG current change (%, negative = inhibition) at 1uM” value turn out when COC(=O)c1cc(C)sc1NC(=O)CCCC(=O)O was run?
A: 23.2%

Q: N#Cc1c(NC(=O)CSc2ncccn2)oc(-c2ccccc2)c1-c1ccccc1 was tested. Which “hERG current change (%, negative = inhibition) at 1uM” value did it give?
A: 23.3%

Q: With Cc1cccc(C2Nc3ccccc3C(=O)N2c2ccccc2)n1 (stereo not shown) as the compound, how does the “hERG current change (%, negative = inhibition) at 1uM” value read?
A: 7.56%

Q: How did the “hERG current change (%, negative = inhibition) at 1uM” value turn out when NC(=O)CN1CCN(CCN2C(=O)c3cccc4cccc(c34)C2=O)CC1 was run?
A: 9.48%

Q: With COC(=O)c1scc(C)c1N1C(=O)c2ccccc2C1=O as the compound, how does the “hERG current change (%, negative = inhibition) at 1uM” value read?
A: 12.4%

Q: COCC(=O)Nc1cc(C)cn(Cc2c(F)cccc2Cl)c1=O was tested. Which “hERG current change (%, negative = inhibition) at 1uM” value did it give?
A: 13.8%

Q: With CCOc1cc(C(=O)NCCc2ccc(S(N)(=O)=O)cc2)cc(OCC)c1OCC as the compound, how does the “hERG current change (%, negative = inhibition) at 1uM” value read?
A: 3.65%

Q: How did the “hERG current change (%, negative = inhibition) at 1uM” value turn out when CCc1ccc(C2CC(c3ccc(Cl)cc3)n3nc(N)nc3N2)cc1 (stereo not shown) was run?
A: 5.32%

Q: Which “hERG current change (%, negative = inhibition) at 1uM” value does the source give for COC(=O)c1cc2ccsc2n1Cc1nc(-c2cccc(Cl)c2)oc1C here?
A: 7.84%

Q: With C=CCn1c(C)cc(C(=O)COC(=O)[C@@H](NC(=O)c2ccccc2Cl)C(C)C)c1C as the compound, how does the “hERG current change (%, negative = inhibition) at 1uM” value read?
A: 4.14%

Q: With CCCc1ccc2oc(C(=O)N3CCC[C@H]3CO)c(C)c2c1 as the compound, how does the “hERG current change (%, negative = inhibition) at 1uM” value read?
A: 3.59%

Q: For Cc1ccccc1S(=O)(=O)N1[C@@H](c2ccc(F)cc2)C(C(=O)O)=CC[C@H]1c1ccc(Cl)cc1, which “hERG current change (%, negative = inhibition) at 1uM” value is on record?
A: 8.27%

Q: Which “hERG current change (%, negative = inhibition) at 1uM” value does the source give for CCOC(=O)C1(Cc2cccc(F)c2)CCN(C2CCOCC2)CC1 here?
A: -40.1%

Q: COc1ccc(/C=C/C2=NN(C)C(=O)CC2)cc1 was tested. Which “hERG current change (%, negative = inhibition) at 1uM” value did it give?
A: 16.1%

Q: With N#Cc1cccc(S(=O)(=O)NCC(=O)OCC(=O)NCc2ccccc2)c1 as the compound, how does the “hERG current change (%, negative = inhibition) at 1uM” value read?
A: 9.66%

Q: Which “hERG current change (%, negative = inhibition) at 1uM” value does the source give for CC1CCc2sc(C(=O)OC(C)C(=O)Nc3ncc(Cl)cc3Cl)cc2C1 (stereo not shown) here?
A: 11.1%

Q: With CCC1CN(C(=O)NCc2ccc(F)cc2)c2ccccc2O1 (stereo not shown) as the compound, how does the “hERG current change (%, negative = inhibition) at 1uM” value read?
A: 7.74%

Q: For CC1CCCC(C)N1C(=O)CSc1nnnn1-c1cccc2c1CCCC2 (stereo not shown), which “hERG current change (%, negative = inhibition) at 1uM” value is on record?
A: -7.29%

Q: With O=C(CBr)c1ccc([N+](=O)[O-])c(CS(=O)(=O)c2ccc(Cl)cc2)c1 as the compound, how does the “hERG current change (%, negative = inhibition) at 1uM” value read?
A: 16.1%

Q: CN(C)/C=N/S(=O)(=O)c1cccn1-c1ncc(C(F)(F)F)cc1Cl was tested. Which “hERG current change (%, negative = inhibition) at 1uM” value did it give?
A: 10.5%

Q: With CC/C(=N\NS(=O)(=O)c1ccc(C)cc1)c1ccco1 as the compound, how does the “hERG current change (%, negative = inhibition) at 1uM” value read?
A: 11.6%

Q: Which “hERG current change (%, negative = inhibition) at 1uM” value does the source give for O=c1[nH]c(CN2CCN(c3ccccc3O)CC2)nc2scc(-c3ccccc3Cl)c12 here?
A: 13%

Q: For Cc1ccc(SCC(=O)OCC(=O)NC(C)c2ccc(F)cc2)cc1 (stereo not shown), which “hERG current change (%, negative = inhibition) at 1uM” value is on record?
A: 8.33%

Q: How did the “hERG current change (%, negative = inhibition) at 1uM” value turn out when O=C(NC1CCCC1)C(c1ccc(Cl)cc1)N1CCN(C2CCCCC2)CC1 (stereo not shown) was run?
A: -27.2%

Q: How did the “hERG current change (%, negative = inhibition) at 1uM” value turn out when OC(c1nc2ccccc2[nH]1)C(O)c1nc2ccccc2[nH]1 (stereo not shown) was run?
A: 14.3%

Q: With Cc1ccc(-n2nc3c(=O)n(CC(=O)NCc4ccccc4)nc(C)c3c2C)cc1 as the compound, how does the “hERG current change (%, negative = inhibition) at 1uM” value read?
A: 12.6%

Q: Which “hERG current change (%, negative = inhibition) at 1uM” value does the source give for CN1C(=O)NC(NS(=O)(=O)c2ccc(N)cc2)(C(F)(F)F)C1=O (stereo not shown) here?
A: 8.38%

Q: With CC(=O)N1CCC2(CC1)CC(=O)c1cc(OCC(=O)N3CCC4(CC3)OCCO4)ccc1O2 as the compound, how does the “hERG current change (%, negative = inhibition) at 1uM” value read?
A: 5.56%

Q: How did the “hERG current change (%, negative = inhibition) at 1uM” value turn out when COc1ccc(C2/C(=C(/O)c3ccccc3)C(=O)C(=O)N2c2ccccn2)cc1OC (stereo not shown) was run?
A: 12.8%

Q: Which “hERG current change (%, negative = inhibition) at 1uM” value does the source give for O=C(c1cn(Cc2ccccc2F)c2ncccc12)C(F)(F)F here?
A: 12.7%

Q: How did the “hERG current change (%, negative = inhibition) at 1uM” value turn out when Cc1ccc(C)c(S(=O)(=O)Nc2ccc3oc(C)c(C(=O)O)c3c2)c1 was run?
A: 12.8%

Q: O=C(NCCc1cn2ccsc2n1)C1CCCCC1 was tested. Which “hERG current change (%, negative = inhibition) at 1uM” value did it give?
A: 1.07%

Q: CCCSC1=NN2CCCC(=O)N=C2S1 was tested. Which “hERG current change (%, negative = inhibition) at 1uM” value did it give?
A: 8.55%

Q: CN1CCN(C(=O)C2CCN(S(=O)(=O)c3ccccc3[N+](=O)[O-])CC2)CC1 was tested. Which “hERG current change (%, negative = inhibition) at 1uM” value did it give?
A: 11.2%

Q: With Cc1ccccc1Oc1nc2ccccn2c(=O)c1/C=C(\C#N)C(=O)Nc1c(C)n(C)n(-c2ccccc2)c1=O as the compound, how does the “hERG current change (%, negative = inhibition) at 1uM” value read?
A: 5.41%

Q: How did the “hERG current change (%, negative = inhibition) at 1uM” value turn out when Cc1ccc(NC(=O)CN(C)C(=O)c2cccnc2Nc2cccc(C(F)(F)F)c2)cc1 was run?
A: 8.3%

Q: For O=C(O)C1Nc2c(Cl)cc(Cl)cc2C2C=CCC12 (stereo not shown), which “hERG current change (%, negative = inhibition) at 1uM” value is on record?
A: 17.5%

Q: CCCCCCc1cc2cc(C(=O)Nc3ccccc3)c(=O)oc2cc1O was tested. Which “hERG current change (%, negative = inhibition) at 1uM” value did it give?
A: 9.04%

Q: How did the “hERG current change (%, negative = inhibition) at 1uM” value turn out when COc1ccc(/C=N/NC(=O)Nc2cccc3nsnc23)cc1 was run?
A: 6.97%

Q: For O=C(O)CCn1c(=O)[nH]c(=O)n(CCC(=O)O)c1=O, which “hERG current change (%, negative = inhibition) at 1uM” value is on record?
A: 15.3%

Q: With CCc1cc2cc3c(cc2nc1SCC(=O)Nc1c[nH]c(=O)[nH]c1=O)OCO3 as the compound, how does the “hERG current change (%, negative = inhibition) at 1uM” value read?
A: 2.67%

Q: Which “hERG current change (%, negative = inhibition) at 1uM” value does the source give for C/C(=C/c1ccccc1)C(=O)N1CCC(C)CC1 here?
A: 10.5%

Q: COc1ccc(/C=N/N=C2/NC(=O)C(c3ccccc3)S2)c(OC)c1 (stereo not shown) was tested. Which “hERG current change (%, negative = inhibition) at 1uM” value did it give?
A: 18.7%

Q: How did the “hERG current change (%, negative = inhibition) at 1uM” value turn out when COc1cccc(CNC(=O)CC2C(=O)NCCN2Cc2ccoc2)c1OC (stereo not shown) was run?
A: 8.51%

Q: For COc1ccc(CN2CCN(Cc3ccccc3F)CC2)c(OC)c1.O=C(O)C(=O)O, which “hERG current change (%, negative = inhibition) at 1uM” value is on record?
A: -36%

Q: With COc1cccc(N2CCN(C(=O)c3ccc(CS(=O)Cc4ccc(Cl)cc4)o3)CC2)c1 (stereo not shown) as the compound, how does the “hERG current change (%, negative = inhibition) at 1uM” value read?
A: -10.9%

Q: Which “hERG current change (%, negative = inhibition) at 1uM” value does the source give for COc1ccc(C(=O)Nc2nnc(Cc3ccc(OC)c(OC)c3)s2)cc1 here?
A: 14%

Q: For COc1cccc(-c2nc(NCC3CCCO3)c3ccccc3n2)c1O (stereo not shown), which “hERG current change (%, negative = inhibition) at 1uM” value is on record?
A: -3.62%

Q: For CN1C(=S)SC(C)(C)C1NO (stereo not shown), which “hERG current change (%, negative = inhibition) at 1uM” value is on record?
A: 2.78%

Q: How did the “hERG current change (%, negative = inhibition) at 1uM” value turn out when Cc1ccccc1Oc1nc2c(c(=O)n(C)c(=O)n2C)n1C was run?
A: 7.72%

Q: CC(C)CN1CCN(CCCc2ccccc2)C(CCO)C1 (stereo not shown) was tested. Which “hERG current change (%, negative = inhibition) at 1uM” value did it give?
A: 5.95%
